The source of these data is ChEMBL document CHEMBL4888484, “Replenishing the malaria drug discovery pipeline: Screening and hit evaluation of the MMV Hit Generation Library 1 (HGL1) against asexual blood stage Plasmodium falciparum ,using a nano luciferase reporter read-out” (2022).

The whole screen tested about 150,000 compounds, of which about 540 (0.36%) showed an effect of 50% or more. The list shows a part of the results.

In this experiment the test system is Plasmodium falciparum. Kind of experiment: Primary screen in NF54 nanoGlo assay, in single point, at 2uM, 72h; a lower Z score goes with more inhibition. Conditions: timepoint 72 hour. Format: functional, Erythrocyte.
In the case of `Cc1cc(O)cc(=O)n1CCC(=O)N1CC(C)(C)[C@@H]2CCC[C@@H]21`, the “% Inhibition” value was -15% and the Z score is 1.49.
For `Cc1nc(N(C)C)nc(N2C[C@H](O)[C@@H](N3CCN(C)CC3)C2)c1C` the same measures were -5% and 0.97.
As to `FC(F)(F)c1cccc2c(N3CCC4(CCCN4Cc4ncc[nH]4)CC3)ccnc12`, the “% Inhibition” value was -7% and the Z score is 0.88.
Taken in the same sequence, the figures for `Cc1nc2ccc(C(=O)N[C@H]3CCC(=O)NC34CCC4)cc2n1C` were -6% and 0.54.
For `O=S(=O)(NC[C@H]1CCN(c2ccccc2)C1)N1CCOCC1` the same measures were -2% and 0.34.
Taken in the same sequence, the figures for `CC(C)Cc1cc(CNC2CCN(CC(C)C)CC2)no1` were -6% and 1.09.
For `O[C@H]1CN(Cc2coc(-c3ccccc3)n2)C[C@@H]1F`, the “% Inhibition” value is listed as -6% and the Z score came out at 0.8.
For the compound `Cc1cc(N2C[C@@H]3OC(=O)N(CCN4CCCCC4)[C@@H]3C2)nc(C(C)C)n1`, the “% Inhibition” value is -7% and the Z score is reported as 0.74.
On to `Cc1ccc([C@H]2CN(S(=O)(=O)c3ccc4c(c3)OCCCO4)C[C@@H]2N)o1`, for which the “% Inhibition” value is -11% and the Z score is 1.4.
For `CNS(=O)(=O)c1ccc(-c2ccc(OC3CC3)cc2)cc1` the same measures were -13% and 1.62.
Taken in the same sequence, the figures for `CCCOc1ccc(C2C3C(=O)N(c4cccc5ccccc45)C(=O)C3ON2c2ccccc2)cc1OC` (stereo not drawn) were -14% and 1.48.
Taken in the same sequence, the figures for `O=C(CCc1ccc(F)cc1)Nc1nccc(-c2ccco2)n1` were 29% and -0.55.
Take `CCOc1ccc(CN2C(=O)CC[C@@]2(C)C(=O)NC2CCCCC2)cc1OC`: the “% Inhibition” value is listed as 1% and the Z score is -0.16.
For `N#C[C@@H](N)c1ccc(Cl)c(Cl)c1` the same measures were -1% and 0.23.
For `Cc1nn(CC(=O)N2CCN(C)c3ncccc3C2)c2ncccc12` the same measures were -1% and 0.09.
With `CC[C@H](OC)C(=O)Nc1cc(C(=O)NC(C)C)ccc1C`, the “% Inhibition” value amounted to 0% and the Z score is 0.09.
For `COC[C@@H](c1ccccn1)n1ccnc1-c1cc2n(n1)CCCNC2` the same measures were -1% and 0.11.
Regarding `COCCN(C)Cc1ccc(CC2CCN(C(=O)c3ccc(C)s3)CC2)cc1`, the “% Inhibition” value was -10% and the Z score is given as 1.95.
As for `O=C(Cn1cnnn1)N(c1ccccc1F)C1CCCC1`, the “% Inhibition” value is given as -4% and the Z score was determined as 0.63.
For `CCOC(=O)N1CCN(C2=NC(=O)[C@@H](C#N)C3(CCCCC3)N2)CC1` the same measures were -5% and 0.65.
Turning to `COc1cc2c(cc1OC)CN([C@H]1CCN(Cc3cccc(Cl)c3)C[C@H]1CCC(=O)O)CC2`, the “% Inhibition” value was -5% and the Z score is recorded as 0.73.
On to `Cc1cn2nc(C(=O)NCCc3ccccc3)cc2c(=O)[nH]1`, for which the “% Inhibition” value worked out at 3% and the Z score is recorded as -0.45.
For `Brc1ccc(CN2CC(c3nc(Cc4ccccc4)no3)C2)cc1` the same measures were -12% and 2.24.
For the compound `O=C1NCCN(Cc2cccc3ccccc23)[C@H]1CC(=O)N1CCOCC1`, the “% Inhibition” value was 3% and the Z score was -0.48.
On to `CN(C)c1cc(NC(=O)N2CCC[C@](C)(c3ccccc3)C2)ncn1`, for which the “% Inhibition” value was -23% and the Z score was 4.24.
Taken in the same sequence, the figures for `COc1cccc(N2CCN(C(=O)c3cn4cc(-c5ccc(F)c(C)c5)ccc4n3)CC2)c1` were -9% and 1.72.
Taken in the same sequence, the figures for `CC(C)C(=O)N1CCc2cc(CNC(=O)c3ccccc3F)ccc21` were -18% and 1.65.
Taken in the same sequence, the figures for `O=C(Nc1c[nH]nc1-c1nccs1)N1C2CCC1CC(O)C2` (stereo not drawn) were -2% and 0.26.
Consider `O=C(Nc1ccccc1)NC1CCCC(OC(=O)Nc2ccccc2)C1` (stereo not drawn), for which the “% Inhibition” value was -17% and the Z score turned out to be 2.98.
Taken in the same sequence, the figures for `CCOc1cc2c(cc1CN1CCn3nc([C@H](C)O)cc3C1)CCC2` were -10% and 1.79.
On to `CCc1nc(-c2ccccc2)nc(N2CCN(C(C)=O)CC2)c1Cc1cccc(Cl)c1`, for which the “% Inhibition” value is -2% and the Z score is given as 0.31.
Taken in the same sequence, the figures for `O=C(NCCc1ncc[nH]1)c1ncccc1Oc1ccccc1` were -15% and 2.9.
For the compound `Cc1cccc(CCN2CCN(C(=O)CN3CCOCC3)CC2)n1`, the “% Inhibition” value is recorded as -9% and the Z score is 1.18.
Taken in the same sequence, the figures for `CC(C)[C@H](C)n1nccc1NC(=O)N1CCN(Cc2ccccc2)CC1` were -18% and 3.8.
Taken in the same sequence, the figures for `CCC(C)(C)C1CCC2(CC1)C[C@@H]2C(=O)N1CCOC2(CCOCC2)CC1` (stereo partly drawn) were -7% and 0.97.
For `CCN(C(=O)CCN1CCCS1(=O)=O)C1CC1` the same measures were -31% and 3.64.
In the case of `COc1ccc(NC2=N[C@@H](c3ccc(Cl)cc3)n3c(nc(C)cc3=O)N2)cc1`, the “% Inhibition” value is 7% and the Z score is -0.84.
Taken in the same sequence, the figures for `NC(=O)c1nnsc1-n1nnc2ccccc21` were 17% and -2.11.
Taken in the same sequence, the figures for `C#C[C@@H]1COCCN1C(=O)c1ccnc2nn[nH]c12` were -12% and 1.8.
Taken in the same sequence, the figures for `CC(Nc1ccc(C(=O)Nc2ccccc2)nn1)C1CCCO1` (stereo not drawn) were -12% and 2.17.
For the compound `Cc1onc(-c2cccc(F)c2)c1C(=O)N1CCCC1`, the “% Inhibition” value is listed as -14% and the Z score amounted to 2.52.
On to `CCn1nnc2cc(C(=O)N3CC=C(c4c[nH]c5ccccc45)CC3)ccc21`, for which the “% Inhibition” value is 3% and the Z score was -0.31.
Taken in the same sequence, the figures for `Cn1oc(C(=O)Nc2ccc(Cl)cc2Nc2ccccc2)cc1=O` were -23% and 2.35.
Taken in the same sequence, the figures for `Cc1noc([C@H]2CC(=O)N(c3ccc4c(c3)CCC4)C2)n1` were 0% and -0.06.
Take `O=C(N[C@H]1CCN2C(=O)c3cc(-c4ccccc4)ccc3NC(=O)[C@H]12)c1cnccn1`: the “% Inhibition” value is recorded as -10% and the Z score is on record as 1.54.
On to `CCc1ccc(CN2CCc3c(C(=O)N[C@H]4CCN(C)C4=O)csc3C2)nc1`, for which the “% Inhibition” value was -5% and the Z score is reported as 0.9.
`CNc1cc(Cl)ccc1OC[C@H]1CCOC1`: the “% Inhibition” value is -3% and the Z score was determined as 0.37.
For `Cc1n[nH]c(C)c1CCc1nc(-c2c(C)ncc3c2CCNC3)no1` the same measures were -5% and 0.66.
Taken in the same sequence, the figures for `Cn1cnnc1N1CCN(C(=O)Nc2c[nH]nc2-c2nccs2)CC1` were 6% and -0.61.
For `O=S(=O)(c1ccsc1)N1CCC(OCC2CCCC2)CC1` the same measures were 12% and -1.6.
As for `CN(Cc1ccncc1)Cc1ccc2c(c1)CCO2`, the “% Inhibition” value was 35% and the Z score was -4.71.
For `CCOC(=O)c1cc(-c2cccc(NC(=O)COc3cccc(Cl)c3)c2)n(-c2ccccc2F)n1` the same measures were -8% and 0.94.
For `O=C(c1ccccc1Cl)N1CCN(S(=O)(=O)c2ccc3c(c2)CCCC3)CC1` the same measures were -4% and 0.31.
For `COC(=O)c1c(-c2cccc(Cl)c2)noc1Nc1ccc(F)cc1` the same measures were -3% and 0.6.
For the compound `CS(=O)(=O)N1CCC[C@H](Cn2ccnc2C2CCCC2)C1`, the “% Inhibition” value was -14% and the Z score was 2.56.
Taken in the same sequence, the figures for `COC(C)CS(=O)(=O)NC1CCCCC1n1cccn1` (stereo not drawn) were -10% and 1.37.
For `COc1ccc(-c2cnnc(N3C[C@@H](C)O[C@@H](C)C3)n2)cc1F` the same measures were -17% and 1.86.
For `Cc1ncncc1C(=O)NC[C@H](O)c1ccc(O)cc1` the same measures were -1% and 0.2.
On to `CCNc1nc(C)c(C(=O)N[C@H]2CN(CCCO)C[C@@H]2C2CC2)s1`, for which the “% Inhibition” value was -4% and the Z score turned out to be 0.58.
Taken in the same sequence, the figures for `Cc1nc(-c2ccccc2)c(C(=O)N2CC[C@H](CO)[C@@H](O)C2)s1` were -6% and 0.63.
Consider `COc1cccc2c1OC[C@@H](C(=O)Nc1cc(-c3ccc(=O)[nH]n3)ccc1C)C2`, for which the “% Inhibition” value is -9% and the Z score is recorded as 1.16.
For `O=C(NCC1CCN(C(=O)c2cc3ccccc3o2)CC1)NC1CCCCCC1` the same measures were -5% and 0.75.
Taken in the same sequence, the figures for `CCc1cc(O)ccc1NC(=O)CN(C)C` were 0% and -0.06.
Taken in the same sequence, the figures for `Cc1nc(-c2nc(CCc3c(C)nc(O)nc3C)n(C(C)(C)C)n2)cs1` were -5% and 0.93.
`C[C@H]1CCN(c2cc(C(=O)Nc3nn(C)cc3C#N)ccn2)C1`: the “% Inhibition” value is -8% and the Z score turned out to be 0.91.
For `CCCN(Cc1ccco1)C[C@H](O)COCc1ccccc1` the same measures were -8% and 1.09.
Taken in the same sequence, the figures for `CCCOc1ccc(Cl)cc1C(N)=O` were -48% and 5.58.
For `CC(C)CN(CC(N)=O)CC(=O)Nc1sccc1C(N)=O` the same measures were -4% and 0.32.
On to `CC(C)NC(=O)C1=CCN(C(=O)c2ccccc2F)CC1`, for which the “% Inhibition” value was -2% and the Z score is 0.34.
Taken in the same sequence, the figures for `C[C@@H](CC1CN(C(=O)OC(C)(C)C)C1)NC(=O)C(C)(C)CO` were -10% and 1.56.
For `Cc1ccc(NC(=O)[C@]2(C)CCCO2)c(CN(C)C)c1` the same measures were -10% and 1.31.
Taken in the same sequence, the figures for `Cn1nc2c(cc1=O)C[C@@H](C(=O)N1CCN(c3ccccc3F)CC1)CC2` were -9% and 1.14.
Turning to `CCC(NC(=O)NC1CC2OCCCC12)c1ccc(F)cc1F` (stereo not drawn), the “% Inhibition” value was found to be 18% and the Z score was -2.28.
For `CCOc1ccc(S(=O)(=O)N2C[C@H]3CN(C(C)=O)CC[C@@]3(CO)C2)cc1` the same measures were -22% and 2.58.
Taken in the same sequence, the figures for `Nc1ccc(N2CCN(c3ccc(C(F)(F)F)nn3)CC2)cn1` were 8% and -0.94.
For `O=C(CC=Cc1ccc(F)cc1)N[C@H]1CC[C@@H](C(=O)O)C1` the same measures were 9% and -1.21.
In the case of `CC(C)c1noc(-c2cccnc2-n2cnc(C(=O)Nc3cccc(F)c3)c2)n1`, the “% Inhibition” value is recorded as -4% and the Z score was determined as 0.48.
Taken in the same sequence, the figures for `CCOCCNC(=O)N[C@@H](C)c1csc(C2CC2)n1` were -8% and 0.9.
Taken in the same sequence, the figures for `Cc1noc(C)c1C(=O)NC1CCC(C)(C)CC1C` (stereo not drawn) were 9% and -1.01.
For `CCOC1CC(NC(=O)c2ccc(OC)cc2)C12CCCO2` (stereo not drawn) the same measures were 0% and 0.08.
Consider `CCOC(=O)[C@H](N)c1ccc(OC(C)C)cc1`, for which the “% Inhibition” value is recorded as -11% and the Z score was 1.23.
Regarding `COCCCn1c(C)cc(C(=O)N2C[C@H]3C(=O)N(CCOC)CCN3C(=O)[C@@H]2C)c1C`, the “% Inhibition” value is reported as -18% and the Z score came to 1.59.
Taken in the same sequence, the figures for `CCCc1nnc([C@H]2CCN(Cc3cccs3)C2)o1` were 1% and -0.17.
Taken in the same sequence, the figures for `O=C(Nc1cc(-n2ccnc2)ncn1)c1ccncc1` were 1% and -0.11.

Usually % Inhibition stands for the relative decrease from the control value, in per cent.
